In all, about 4,000 sequences were measured (“arbitrary fluorescence units”: median about 830, highest 2% from about 6,500 on). This part holds few or none of the hits.
target: RUNX1 (UniProt Q01196); assay: RUNX1 binding intensity (PBM fluorescence), RUNX1 alone (arbitrary fluorescence units); higher = stronger binding; settings: RUNX1 concentration 2 nM; ETS1 concentration 0 nM
Description: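 gcPBM on 36-bp genomic-derived probes (partner site mutated) containing one RUNX1 site and no ETS1 site. Recombinant human RUNX1 (2 nM) was incubated alone or with ETS1 (25 nM) and detected by anti-RUNX1 antibody fluorescence. Values are medians over 4 replicate spots (not normalised). The probes sit in constant array flanks that are not printed.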
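Further: Full-length recombinant human RUNX1 bound to double-stranded DNA microarray spots, detected with an Alexa488-labelled secondary antibody after the anti-RUNX1 primary, read as scanned spot fluorescence.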

UniProt Q01196, sequence (Q01196 whole entry): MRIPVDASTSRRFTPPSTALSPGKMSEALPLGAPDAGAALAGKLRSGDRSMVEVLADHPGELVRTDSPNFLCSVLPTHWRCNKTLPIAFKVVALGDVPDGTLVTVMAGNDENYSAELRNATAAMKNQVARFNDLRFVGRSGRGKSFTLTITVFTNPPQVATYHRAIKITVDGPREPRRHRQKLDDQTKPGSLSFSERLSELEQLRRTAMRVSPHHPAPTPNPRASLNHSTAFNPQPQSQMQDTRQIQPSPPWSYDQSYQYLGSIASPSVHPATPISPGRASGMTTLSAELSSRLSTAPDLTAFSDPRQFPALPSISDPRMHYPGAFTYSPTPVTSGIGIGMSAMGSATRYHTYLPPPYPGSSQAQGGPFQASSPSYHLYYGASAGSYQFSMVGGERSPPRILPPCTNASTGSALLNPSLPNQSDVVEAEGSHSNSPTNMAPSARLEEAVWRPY

Sequence	RUNX1 binding intensity
TGTTCGGTGGTTGTCTCGGGGGGTTGCAGCAAGATC	1010
ATTGTAAATTGCCTTTAAACGTCCCCACCGCGCTCC	967
AACTAGTTCGTTCCTTATGCGGCCCAGGGCTCCACC	893
CTTGGCTGTGGTTCTCTGGTAGGAGGTGAGAGAGGT	968
GGAGGCAGGGCCGCAACCCCGGCAAGCTGGGGTCGG	723
GAGTGGCTGTGGTCTCGGGCGGCTGGGGAGAGGGGA	956
AACAACAAAAATCCCAGGAACCACAGTGGGACAGGA	772
GCTCCTCCCGGCTATAAAGCCCCAAACCACGCCACT	980
AAGCCCTAGAGGAGATTAGTACGTAACCACCTTCTG	709
AAGTTAGGTCTGAAGACCTGTGGGCAGCTTGAGCGC	695
AATCAGATTGTGCCCACAAGGCGGAGATGTACGACA	846
AAAAACAAGGAGGCCTGAAGGGAAGGCGGTTGAAAA	764
AACCAAGCAACCACTCGAAACTCCCGAGTACACCCT	954
AAATTGAGGTTTCTGTTAGTGAAGAGGAGGAGGTCA	981
GGACTGCGTTGCCGGACACTGCGGGTGCCGGTAGCC	683
AGTCTTACCACCTCTGAGGATGACTGAGCGCAAGAG	775
GCTGCGGCTGCCGCCATCATGGTGCGGCAGCTTAAG	749
GACAGAACCTGTGGTCTGCAGGGTTTCATGTTAAAC	882
TACGGGAACGTCCTTTTCTTGTGGTGTGGCCGGGTC	788
TCCCTCCACCGCTCAGACCCACTGCCTGTCTGCTTC	1420
CTTGCGGCCTCGCGGCATGGGCAGTCTCCGCCGCCA	755
CTGTGTATTTGTGGGATGCTTGAGGAGATCAAAAAG	766
TTGTCACGCCCGGCACGCCGCGAACCGCAAGGAACC	1270
AGGCCGCTTGCTCCCACATGAAACCGCAGGCTTCGG	3320
TTACCCCGGCTGAACGGAGGCCTGCGGTCGCGGCGG	1070
CTTGTGCCTACATGCTGTAGCTGTGGTTTAGGGACG	811
ACCTCCGTCCGTCCCGCGGGACCAGGGTGCGGGTCC	822

Sequence	RUNX1 binding intensity
ACTGTGGGCGCAGGCGCGGCTGCCGATTCCTCTTTA	786
CATTGAATGTGGTAGGAGGTGGGGAGCAAGCCACTG	824
GACTTGGGGGAACTGGCTTGGTTTGCGTGGTTTCTC	1080
AAAACCTTTAAACCACAGGGGACAGGCAATGAGTGC	1180
TGAAGGAGCGCAAGGGTTGCTTGCAGACCGCACGGT	649
AGTTGGTTCCTTCAGGTGGGTTTGTGGGTTTGGGGT	790
GAGACGTGTGGTAATTACTGTTTTCCAGGCAGTGGC	752
GGTCACAGCCTTTCCCTTCTGTGTCTCAGCCGCAGT	948
GGACAGCAAGTGCCTGCAGCTTCTACCACAAACCTA	820
AAGAGGCAGTCCCAAATTGCTTTTTAACCACCAACA	766
TGAGTCAGTAGCCACAAGTAGAACAGGCAGTGGAAA	771
CCCGGACCGTCTCCGTGCTGTGGTCCCGGGTTCTGG	884
TCGCCTCAGCCCACATATTCAACCCGGGAGCCTGGG	983
CTGTTCTCATCAGCCCGCTCTGAGTCACCCACACCT	916
GCCCACTGCCTGCCGTAAGAGAAAACCACTAACACA	1190
CTCCTGCCTGATCGGGCAGGAACTAACCACAGGAGG	831
GACCCGCCCACAAGACCTGCCCCTTTCGGGTCCGTT	1050
GAAGCCAGCAAATGGTGCGTGTGCGGGGCCGGGCGC	705
GGAGAGTTGACTTTCGGCGGCTTGTGGGAGTGCTGG	644
CTCCGGGAGCCCGCAAGCGGCTCCCGGGTGCTCGCA	707
CACCTCCGTCCCCTACAACGCGGCCGACCGCGCGGA	1040
TCTGGCTTCATGTCTTAATAGGGCTTTGTGGTGTGC	748
TGGCGGGAGAACGTCCCCCTGTGCGGTCGCGACGTG	713
ATGGGATTCCCGCAGGTTGCACCGAAGGACGCAAGG	785
CCAGCGCCGCGGTACAACCTCGGCACTTTCGCCCGC	770
CCCCCGTGTGGTCCGCCCATGCTAACTTGCTGCCGG	906
CATTTTGTCGCCGCAGCCACCTTGCTGGAGAGCCCG	1050

Sequence	RUNX1 binding intensity
TGCCTCTTCATGTGGCTGGGCTGTATCTGACCACAC	680
GCCTTTGCGGCAGTGTGCGCCCCGTAAGCCTGAAGC	716
TCCAGCCGGGCGCGATGCCTGGAGGCTGCGGGCGCC	697
GAGCGCAAACCCGAGAGTCAGTTCAACCACAGCCAC	852
TCGGTCTGCGGCTGCGCACAGCGCGAGGAGGCGCGG	751
GGGTTCCCGCAGCAACACGTACCGGCAAGCGTTTGG	812
AGATGAGGGAGTTGGGGTTTAGAGTGGTTAAACTGT	719
CTCCGGGAACAGCCGAAAAGGGACCGCATGAACCTC	870
TCTCTCTACGGAGGCTGGTAGGGCTGTGGGTGCTTC	745
CCGCGGCTGAACCCGAGGGCGGCGGCAGCGGTTTCA	640
CAAAACATGAACCACAAACCCCAGCTTCTTCTTGCA	1650
GACGCTCTCTTTCTGTCTTTGTGGCTCCAGAAAGGC	773
CATGCGGTCCCTTTTGCGCTGTTCCCTGACGGACTA	966
AAATGAGCGGTGGTTGAGCCCTACTTTCGGTGGTGC	743
TCCCCTTTCAGGGAAGGGTTGGGGATCTGACCACGT	640
ACACCGTAAGCCCAACAGCATGCCGAGTAACCACCC	940
CACTTGGTCTTGCTGCCCTTGTGGCCCTAACACCCT	841
AATCCCGGCAACGCGGATTCAGCGGAGCGCGGTGAC	711
AGGGACGAAGGGTACTGTTGGGAGCCCGCAATGGAA	668
CGGGCTGGAATCACGATCCACCACACCGCGCTGGCT	809
ATCTTAGCCCACAGCCAAAGCTCTTGCTGGTTGCTC	688
CCCGCGGTCCAAAATCTGAGTAAAGCGAAAGTACGG	766
CTAGGCAGACCACAAACGTTAGGGCAGGCAATGATT	1060
ATGGCGGAGCGAAAGTCCCAGCCACAACGCGAAAAG	713
TTGGCTTGTGGCTGGACTACATGTCCCAGCATCCCT	738
TCTGGGCTGACTTGCTGGCTTCGTCCCACAACTTCA	772

From the supplement of paper PMC10681739
